Measured values as given in a collection of fitness landscapes (doi:10.1126/science.1257360).
This is one part of the list.

B1: PhoQ; a variant is named by its letters at X, in order, P23837 (parent)
chain: MKKLLRLFFPLSLRVRFLLATAAVVLVLSLAYGMVALIGYSVSFDKTTFRLLRGESNLFYTLAKWENNKLHVELPENIDKQSPTMTLIYDENGQLLWAQRDVPWLMKMIQPDWLKSNGFHEIEADVNDTSLLLSGDHSIQQQLQEVREDDDDAEMTHSVAVNVYPATSRMPKLTIVVVDTIPVELKSSYMVWSWFIYVLSANLLLVIPLLWVAAWWSLRPIEALAKEVRELEEHNRELLNPATTRELTSLVRNLNRLLKSERERYDKYRTTLTDLTHSLKTPLXXLQXXLRSLRSEKMSVSDAEPVMLEQISRISQQIGYYLHRASMRGGTLLSRELHPVAPLLDNLTSALNKVYQRKGVNISLDISPEISFVGEQNDFVEVMGNVLDNACKYCLEFVEISARQTDEHLYIVVEDDGPGIPLSKREVIFDRGQRVDTLRPGQGVGLAVAREITEQYEGKIVAGESMLGGARMEVIFGRQHSAPKDE

Variants of: B1
Experiment: enrichment ratio after two sorts for PhoP signalling (ratio (wild type AVST 3.29)); higher = more functional
Conditions: with PhoP (E. coli)

Variant	enrichment ratio
KKAQ	≤ 0.25
PDQA	≤ 0.25
RDHR	≤ 0.25
IVGN	≤ 0.25
VHRE	≤ 0.25
EGPC	≤ 0.25
MCVA	≤ 0.25
DTVS	≤ 0.25
FWNC	≤ 0.25
KLYQ	≤ 0.25
QKLI	4.14
LGSM	≤ 0.25
KFAF	≤ 0.25
ISYV	≤ 0.25
NMSL	≤ 0.25
ERQL	≤ 0.25
VKRH	≤ 0.25
WPSL	≤ 0.25
THLG	14.4
CVAL	≤ 0.25
YQKW	≤ 0.25
PFSV	≤ 0.25
HGFH	≤ 0.25
YCFL	≤ 0.25

Variant	enrichment ratio
LTPN	≤ 0.25
KGVE	≤ 0.25
PYAV	≤ 0.25
HTFT	≤ 0.25
GRPP	≤ 0.25
DASI	≤ 0.25
MPCQ	≤ 0.25
VVVQ	≤ 0.25
VMFV	≤ 0.25
ICMC	≤ 0.25
VSRT	≤ 0.25
VQET	≤ 0.25
KLAV	≤ 0.25
NFKF	≤ 0.25
LECT	9.98
AKNI	≤ 0.25
ACLM	4.08
YCWQ	≤ 0.25
GEKH	≤ 0.25
EPGY	≤ 0.25
VVWD	≤ 0.25
IMGL	≤ 0.25
DFID	≤ 0.25
MGHW	≤ 0.25

Variant	enrichment ratio
TWCA	≤ 0.25
DGTC	≤ 0.25
TNHK	≤ 0.25
ISIR	≤ 0.25
GPYR	≤ 0.25
MKYL	≤ 0.25
LTCD	≤ 0.25
MDIY	≤ 0.25
FSSG	≤ 0.25
RNRA	≤ 0.25
PMRM	≤ 0.25
AKAK	≤ 0.25
FHPN	≤ 0.25
IVAM	≤ 0.25
MMLT	≤ 0.25
ECHC	≤ 0.25
REMK	≤ 0.25
IRTN	≤ 0.25
YVCT	0.338
WHVD	≤ 0.25
MKNR	≤ 0.25
SFSQ	≤ 0.25
NENA	≤ 0.25
SSGQ	4.67

Variant	enrichment ratio
HCTN	≤ 0.25
VHDN	≤ 0.25
MFGC	≤ 0.25
GFWD	≤ 0.25
KCDT	≤ 0.25
WLKP	≤ 0.25
TDQT	34.2
VDWA	≤ 0.25
ESDA	≤ 0.25
CNSF	≤ 0.25
YINN	0.808
RCCD	≤ 0.25
FGNA	≤ 0.25
HHIG	≤ 0.25
TKAS	9.15
TATE	≤ 0.25
WHRC	≤ 0.25
NQWT	≤ 0.25
MYRF	≤ 0.25
REFE	≤ 0.25
KIAA	≤ 0.25
RKIL	≤ 0.25
DTAY	≤ 0.25
NHIH	≤ 0.25

Variant	enrichment ratio
DLGA	0.566
PFIV	≤ 0.25
MHAY	≤ 0.25
WGDE	≤ 0.25
WYQH	≤ 0.25
PIFR	≤ 0.25
LAPC	≤ 0.25
TKTY	≤ 0.25
AKVK	≤ 0.25
RAVY	≤ 0.25
PVYP	≤ 0.25
RCLN	≤ 0.25
MILP	≤ 0.25
TVAC	7.24
ISVT	0.441
EHNC	≤ 0.25
RPWN	≤ 0.25
PRSM	≤ 0.25
SPSA	≤ 0.25
DFPC	≤ 0.25
WGYI	≤ 0.25
FVLN	2.59
DRWH	≤ 0.25
YLDW	≤ 0.25

Variant	enrichment ratio
GRLC	≤ 0.25
WELW	≤ 0.25
EPSS	≤ 0.25
GFFG	≤ 0.25
NAWP	≤ 0.25
AYKS	≤ 0.25
QLIW	≤ 0.25
HPLV	≤ 0.25
IVFW	≤ 0.25
WAFM	≤ 0.25
ELCT	≤ 0.25
DDWD	≤ 0.25
HFAF	≤ 0.25
LENG	≤ 0.25
LLQS	≤ 0.25
WSFD	≤ 0.25
KMMW	≤ 0.25
WHWV	≤ 0.25
SFAG	0.768
ILPY	≤ 0.25
AEHN	≤ 0.25
IMKH	≤ 0.25
RTMD	≤ 0.25
QIYS	3.96

Variant	enrichment ratio
GIGW	16
SFFK	≤ 0.25
FDAD	≤ 0.25
NLHK	≤ 0.25
YAFQ	≤ 0.25
FNQA	≤ 0.25
MIKL	≤ 0.25
PPIP	≤ 0.25
DKHA	≤ 0.25
VWTP	≤ 0.25
ASMS	5.31
PRDR	≤ 0.25
QSLD	≤ 0.25
TPPC	≤ 0.25
EEPH	≤ 0.25
NFWI	≤ 0.25
YGCL	2.74
KVLA	≤ 0.25
SPAE	≤ 0.25
DDAD	≤ 0.25
NIED	≤ 0.25
DTCS	≤ 0.25
VCFT	≤ 0.25
GFKY	≤ 0.25

Variant	enrichment ratio
DWMR	≤ 0.25
LTQY	≤ 0.25
MQML	≤ 0.25
KTGQ	≤ 0.25
DAGT	≤ 0.25
WRDV	≤ 0.25
AILP	≤ 0.25
PICN	≤ 0.25
MEKI	≤ 0.25
WLYI	≤ 0.25
DHRW	≤ 0.25
RKIF	≤ 0.25
DISS	≤ 0.25
WTKA	≤ 0.25
TYDG	≤ 0.25
GTIN	≤ 0.25
NEPT	≤ 0.25
TDSA	5.99
RYMV	≤ 0.25
QLMS	≤ 0.25
KMDN	≤ 0.25
KIKD	≤ 0.25
HGHL	≤ 0.25
SRAT	≤ 0.25

Variant	enrichment ratio
GACH	≤ 0.25
TRDD	≤ 0.25
VFLV	≤ 0.25
CWMT	≤ 0.25
TLTI	10.7
RFMR	≤ 0.25
AMSW	0.458
FIVT	≤ 0.25
FNCL	≤ 0.25
KMNH	≤ 0.25
RSFA	≤ 0.25
MFSE	≤ 0.25
ANTA	19.3
MLCS	0.26
TWTS	≤ 0.25
RGIY	≤ 0.25
LVSL	≤ 0.25
PSQW	≤ 0.25
HKQG	≤ 0.25
MNVG	≤ 0.25
QNHG	≤ 0.25
TYAN	≤ 0.25
EQNK	≤ 0.25
QAEF	≤ 0.25

Variant	enrichment ratio
RFYA	≤ 0.25
ATMS	6.27
PKLK	≤ 0.25
PFES	≤ 0.25
GRCF	≤ 0.25
PPDK	≤ 0.25
YKRH	≤ 0.25
MTHL	7.87
YDQA	≤ 0.25
LFQR	≤ 0.25
LYMH	≤ 0.25
QIFY	≤ 0.25
KHKD	≤ 0.25
PVPC	≤ 0.25
WSMR	≤ 0.25
AFQV	≤ 0.25
GLRC	≤ 0.25
EGLR	0.729
WYPC	≤ 0.25
GETS	1.4
RWNF	≤ 0.25
LYIW	≤ 0.25
VLRS	≤ 0.25
HCSS	≤ 0.25

Variant	enrichment ratio
MFMA	≤ 0.25
HERL	≤ 0.25
FWNH	≤ 0.25
YCWY	≤ 0.25
FNIY	≤ 0.25
YFDK	≤ 0.25
FMLP	≤ 0.25
IFWK	≤ 0.25
GNES	≤ 0.25
WFLC	≤ 0.25
AWNE	≤ 0.25
VRNC	≤ 0.25
RKLC	≤ 0.25
WEAC	≤ 0.25
QFMH	≤ 0.25
SPTH	≤ 0.25
ERFN	≤ 0.25
RAGH	≤ 0.25
MVVD	≤ 0.25
LTMG	≤ 0.25
FEES	≤ 0.25
YQDP	≤ 0.25
ESYE	≤ 0.25
TAHK	≤ 0.25

Variant	enrichment ratio
WDCM	≤ 0.25
HYEP	≤ 0.25
QLIT	≤ 0.25
ARWY	≤ 0.25
SGTH	8.61
WQTY	≤ 0.25
LNLT	1.78
DVSS	≤ 0.25
WIFI	≤ 0.25
IANK	≤ 0.25
HVSK	≤ 0.25
LPTF	≤ 0.25
DMFD	≤ 0.25
LRMV	≤ 0.25
YWPP	≤ 0.25
FHDE	≤ 0.25
WPPF	≤ 0.25
FDSI	≤ 0.25
SAFK	≤ 0.25
IEIM	≤ 0.25
TLVA	≤ 0.25
AFCH	≤ 0.25
LGTG	≤ 0.25
NQDA	≤ 0.25

Variant	enrichment ratio
VDDN	≤ 0.25
ARKI	≤ 0.25
PFRV	≤ 0.25
QPPC	≤ 0.25
NACK	≤ 0.25
LGII	≤ 0.25
VERP	≤ 0.25
QSHH	≤ 0.25
AHAM	≤ 0.25
NARR	≤ 0.25
RRKW	≤ 0.25
PSYA	≤ 0.25
SHQP	≤ 0.25
NRDV	≤ 0.25
IKLR	≤ 0.25
ESFN	≤ 0.25
YALK	≤ 0.25
IEMS	≤ 0.25
